Where a name gives a salt, the structure may show the parent alone. ± gives the standard error. In all, about 1,300 compounds went through this assay and about 130 (10%) showed an effect of 50% or more. This is a selection; strong and weak results do not stand in their true shares.
Tested on: Trichoderma virens ATCC 9645
Assay: growth yield (OD600) with compound + IPBC relative to untreated control; higher = less growth inhibition
Conditions: compound concentration: 100 uM, IPBC concentration: 200 ng/ml
In short: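 A biocide at 200 ng ml^−1 was co-applied to some wells, and library compounds were present in all test wells at 100 μM final. The wells held 100 μl of Trichoderma virens ATCC 9645 spores at 15,000 spores ml^−1 in potato dextrose broth, grown at 30 °C in 96-well plates, with OD600 read at 40 h and 72 h. Results are relative growth against the control without either agent, averaged across duplicate screens.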

Compound | growth yield (40 h) | growth yield (72 h)
NCCCNCCSP(=O)(O)O [Amifostine] + CCCCNC(=O)OCC#CI [3-iodo-2-propynyl butylcarbamate (IPBC)] | 110% | 106%
CC(COc1ccccc1)NC(C)C(O)c1ccc(O)cc1 (configuration not stated) [Isoxsuprine hydrochloride] + CCCCNC(=O)OCC#CI [3-iodo-2-propynyl butylcarbamate (IPBC)] | 89.6 ± 1.3% | 96.1 ± 2.1%
CC(C)(C)c1ccc(C(O)CCCN2CCC(C(O)(c3ccccc3)c3ccccc3)CC2)cc1 (configuration not stated) [Terfenadine] + CCCCNC(=O)OCC#CI [3-iodo-2-propynyl butylcarbamate (IPBC)] | 47.2 ± 9.1% | 90.09 ± 0.73%
CCOC(=O)NNc1nncc2ccccc12 [Todralazine hydrochloride] + CCCCNC(=O)OCC#CI [3-iodo-2-propynyl butylcarbamate (IPBC)] | 99.6 ± 7.2% | 97.3 ± 4.8%
CCCCN1CCCCC1C(=O)Nc1c(C)cccc1C (configuration not stated) [Bupivacaine hydrochloride] + CCCCNC(=O)OCC#CI [3-iodo-2-propynyl butylcarbamate (IPBC)] | 77.5 ± 2.2% | 85.9 ± 1.4%
CCN(CCO)CCCC(C)Nc1ccnc2cc(Cl)ccc12 (configuration not stated) [Hydroxychloroquine sulfate] + CCCCNC(=O)OCC#CI [3-iodo-2-propynyl butylcarbamate (IPBC)] | 99.8 ± 1.6% | 96.59 ± 0.32%
CC(=O)[C@H]1CC[C@H]2[C@@H]3CC=C4C[C@@H](O)CC[C@]4(C)[C@H]3CC[C@]12C [Pregnenolone] + CCCCNC(=O)OCC#CI [3-iodo-2-propynyl butylcarbamate (IPBC)] | 78 ± 12% | 83.8 ± 6.2%
COc1ccc(CC2c3cc(OC)c(OC)cc3CC[N+]2(C)CCC(=O)OCCCCCOC(=O)CC[N+]2(C)CCc3cc(OC)c(OC)cc3C2Cc2ccc(OC)c(OC)c2)cc1OC (configuration not stated) [Atracurium besylate] + CCCCNC(=O)OCC#CI [3-iodo-2-propynyl butylcarbamate (IPBC)] | 83.1 ± 2.4% | 92.6 ± 2.2%
CCOc1ccccc1OC(c1ccccc1)C1CNCCO1 (configuration not stated) [Reboxetine mesylate] + CCCCNC(=O)OCC#CI [3-iodo-2-propynyl butylcarbamate (IPBC)] | 82.92 ± 0.32% | 90.61 ± 0.63%
Nc1ccc(S(=O)(=O)Nc2ccccn2)cc1 [Sulfapyridine] + CCCCNC(=O)OCC#CI [3-iodo-2-propynyl butylcarbamate (IPBC)] | 98.8 ± 10% | 98.6 ± 7.5%
Nc1ccn([C@@H]2O[C@H](CO)[C@@H](O)[C@@H]2O)c(=O)n1 [Cytarabine] + CCCCNC(=O)OCC#CI [3-iodo-2-propynyl butylcarbamate (IPBC)] | 82.6 ± 0.64% | 88.52 ± 0.42%
COc1ccnc(C[S+]([O-])c2nc3cc(OC(F)F)ccc3[nH]2)c1OC (configuration not stated) [Pantoprazole sodium] + CCCCNC(=O)OCC#CI [3-iodo-2-propynyl butylcarbamate (IPBC)] | 73.5 ± 2.4% | 98.9 ± 0.94%
Cc1ccc(S(=O)(=O)NC(=O)NN2CCCCCC2)cc1 [Tolazamide] + CCCCNC(=O)OCC#CI [3-iodo-2-propynyl butylcarbamate (IPBC)] | 89 ± 7.6% | 93.7 ± 2.6%
COc1cccc(OC)c1C(=O)N[C@@H]1C(=O)N2[C@@H]1SC(C)(C)[C@@H]2C(=O)O [Methicillin sodium] + CCCCNC(=O)OCC#CI [3-iodo-2-propynyl butylcarbamate (IPBC)] | 89.3% | 90.7 ± 2%
CCOC(=O)c1ccc(N)cc1 [Benzocaine] + CCCCNC(=O)OCC#CI [3-iodo-2-propynyl butylcarbamate (IPBC)] | 91.5 ± 7.9% | 93.4 ± 5.6%
OC(CCCN1CCCCC1)(c1ccccc1)c1ccccc1 [Diphenidol hydrochloride] + CCCCNC(=O)OCC#CI [3-iodo-2-propynyl butylcarbamate (IPBC)] | 89.4 ± 2.4% | 96.7 ± 3.4%
Nc1nc(NC2CC2)c2ncn([C@H]3C=C[C@@H](CO)C3)c2n1 [Abacavir Sulfate] + CCCCNC(=O)OCC#CI [3-iodo-2-propynyl butylcarbamate (IPBC)] | 90.54 ± 0.32% | 93.1 ± 2.5%
CNC(C)CCC=C(C)C (configuration not stated) [Isometheptene mucate] + CCCCNC(=O)OCC#CI [3-iodo-2-propynyl butylcarbamate (IPBC)] | 101 ± 16% | 101 ± 8.4%
O=C(COc1ccc(Cl)cc1)N1CCN(Cc2ccc3c(c2)OCO3)CC1 [Fipexide hydrochloride] + CCCCNC(=O)OCC#CI [3-iodo-2-propynyl butylcarbamate (IPBC)] | 64 ± 1.1% | 85.2 ± 1.9%
CN(Cc1cnc2nc(N)nc(N)c2n1)c1ccc(C(=O)N[C@@H](CCC(=O)O)C(=O)O)cc1 (racemic) [Amethopterin (R,S)] + CCCCNC(=O)OCC#CI [3-iodo-2-propynyl butylcarbamate (IPBC)] | 88.2 ± 12% | 96.3 ± 7.3%

Compound | growth yield (40 h) | growth yield (72 h)
Cc1ccsc1/C=C/C1=NCCCN1C [Morantel tartrate] + CCCCNC(=O)OCC#CI [3-iodo-2-propynyl butylcarbamate (IPBC)] | 97.5 ± 3.2% | 98.4 ± 1.9%
CN(C)c1ccc(O)c2c1C[C@H]1C[C@H]3[C@H](N(C)C)C(O)=C(C(N)=O)C(=O)[C@@]3(O)C(O)=C1C2=O [Minocycline hydrochloride] + CCCCNC(=O)OCC#CI [3-iodo-2-propynyl butylcarbamate (IPBC)] | 58.1 ± 2.2% | 84.6 ± 4.7%
CN(C)[C@@H]1C(O)=C(C(N)=O)C(=O)[C@@]2(O)C(O)=C3C(=O)c4c(O)cccc4[C@@](C)(O)[C@H]3[C@H](O)[C@@H]12 [Oxytetracycline dihydrate] + CCCCNC(=O)OCC#CI [3-iodo-2-propynyl butylcarbamate (IPBC)] | 83.5 ± 3.8% | 72.7 ± 2.2%
CC/C(=C(/CC)c1ccc(O)cc1)c1ccc(O)cc1 [Diethylstilbestrol] + CCCCNC(=O)OCC#CI [3-iodo-2-propynyl butylcarbamate (IPBC)] | 85 ± 15% | 87.9 ± 10%
CSc1ccc2c(c1)N(CCC1CCCCN1C)c1ccccc1S2 (configuration not stated) [Thioridazine hydrochloride] + CCCCNC(=O)OCC#CI [3-iodo-2-propynyl butylcarbamate (IPBC)] | 3.81 ± 0.64% | 2.94 ± 0.21%
Cc1cc(-c2ccccc2)nnc1NCCN1CCOCC1 [Minaprine dihydrochloride] + CCCCNC(=O)OCC#CI [3-iodo-2-propynyl butylcarbamate (IPBC)] | 88.2 ± 1.8% | 92.3 ± 2.1%
NC(N)=Nc1nc(CSCC/C(N)=N/S(N)(=O)=O)cs1 [Famotidine] + CCCCNC(=O)OCC#CI [3-iodo-2-propynyl butylcarbamate (IPBC)] | 84.7 ± 3% | 93.8 ± 3.6%
COc1cc(-c2ccc(=O)[nH]n2)ccc1OC(F)F [Zardaverine] + CCCCNC(=O)OCC#CI [3-iodo-2-propynyl butylcarbamate (IPBC)] | 105 ± 3% | 103.6 ± 0.42%
COc1cc(NC(C)CCCN)c2ncccc2c1 (configuration not stated) [Primaquine diphosphate] + CCCCNC(=O)OCC#CI [3-iodo-2-propynyl butylcarbamate (IPBC)] | 73.7 ± 11% | 117.7 ± 1.1%
CCCCNc1c(C(=O)OCC)c(C)nc2c1cnn2CC [Tracazolate hydrochloride] + CCCCNC(=O)OCC#CI [3-iodo-2-propynyl butylcarbamate (IPBC)] | 21.9% | 
CCCOc1ccc(C(=O)OCCN(CC)CC)cc1N [Proparacaine hydrochloride] + CCCCNC(=O)OCC#CI [3-iodo-2-propynyl butylcarbamate (IPBC)] | 106 ± 14% | 104 ± 9.9%
CC(CN(C)C)C(C)(O)Cc1ccc(Cl)cc1 (configuration not stated) [Clobutinol hydrochloride] + CCCCNC(=O)OCC#CI [3-iodo-2-propynyl butylcarbamate (IPBC)] | 92.8 ± 6.7% | 95.1 ± 3%
CC[C@@H](CO)NCCN[C@@H](CC)CO [Ethambutol dihydrochloride] + CCCCNC(=O)OCC#CI [3-iodo-2-propynyl butylcarbamate (IPBC)] | 87.05 ± 0.64% | 91.6 ± 0.94%
CC(=O)OCC(=O)[C@@]1(OC(C)=O)[C@@H](C)C[C@H]2[C@@H]3C[C@H](F)C4=CC(=O)C=C[C@]4(C)[C@@]3(F)[C@@H](O)C[C@@]21C [Diflorasone Diacetate] + CCCCNC(=O)OCC#CI [3-iodo-2-propynyl butylcarbamate (IPBC)] | 89.6 ± 5.1% | 93.8 ± 2.9%
C=CCOC(Cn1ccnc1)c1ccc(Cl)cc1Cl (configuration not stated) [Enilconazole] + CCCCNC(=O)OCC#CI [3-iodo-2-propynyl butylcarbamate (IPBC)] | 3.34 ± 0.16% | 2.94 ± 0.21%
O=c1[nH]c2ccccc2n1C1CCN(CCCC(c2ccc(F)cc2)c2ccc(F)cc2)CC1 [Pimozide] + CCCCNC(=O)OCC#CI [3-iodo-2-propynyl butylcarbamate (IPBC)] | 111 ± 8.3% | 136 ± 2.7%
C#C[C@]1(O)CC[C@H]2[C@@H]3CCC4=CC(=O)CC[C@@H]4[C@H]3CC[C@@]21CC [Norgestrel-(-)-D] + CCCCNC(=O)OCC#CI [3-iodo-2-propynyl butylcarbamate (IPBC)] | 89 ± 16% | 94.3 ± 13%
N=C(N)NCCN1CCCCCCC1 [Guanethidine sulfate] + CCCCNC(=O)OCC#CI [3-iodo-2-propynyl butylcarbamate (IPBC)] | 81.3 ± 4.1% | 90.2 ± 4.4%
CC1(C)[C@@H](OC(=O)CCC(=O)O)CC[C@]2(C)[C@H]3C(=O)C=C4[C@@H]5C[C@@](C)(C(=O)O)CC[C@]5(C)CC[C@@]4(C)[C@]3(C)CC[C@@H]12 [Carbenoxolone disodium salt] + CCCCNC(=O)OCC#CI [3-iodo-2-propynyl butylcarbamate (IPBC)] | 96.3 ± 18% | 96 ± 11%
